Experimental data: PubChem BioAssay AID485297 (National Center for Advancing Translational Sciences (NCATS), 2010)
Where “and” joins values, the source holds several entries; their conditions need not be identical. Equal entries are not always repeated. The campaign covered roughly 320,000 compounds. About 9,100 (2.8%) were called active. This list was built around the results that the source calls inconclusive (neither active nor inactive); the mix of calls is not that of the screen. Calls follow the shape of the dose curve; as a rule, active = well fitted activation curve with a large enough effect; inconclusive = small, poorly fitted or top-dose-only effect; inactive = no such curve, though single readings can be large or run the other way. Where the call is inconclusive, the potency comes from a doubtful curve fit.

Test: qHTS Assay for Rab9 Promoter Activators; also: nearly all actives have a fitted effect of over 60% in size; as to activation, negative = inhibition: % of control where 0% means no effect
Details: Huh7 Rab9 promoter-luciferase reporter, luminescence, 24 h; series mostly up to 9.22 µM; activation, negative = inhibition: at the top concentration
Summary of the method: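 Luciferase signal after 10 min detection reagent at ambient indicates Rab9 promoter upregulation; stably transfected Huh7 cells were treated 24 h with compound in DMSO at 37 °C, 5% CO2.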
Potency is read from the fitted curve at half-maximal effect; tags tell the direction and shape of the fitted curve.

Potency, active:
O=C(Nc1cnc2ccccc2c1)c1cccnc1 2.24 µM
Cc1cc(C)n(-c2ccc(C(=O)NC3=NCCS3)cc2)n1 3.16 µM
C/C(=N\Nc1ccccc1[N+](=O)[O-])c1ccc(N2CCOCC2)cc1 3.16 µM
O=C(Nc1ccc(Br)cn1)c1ccc([N+](=O)[O-])cc1Cl 2.51 µM
COc1ccc(-n2nc3cc(C)c(NC(C)=O)cc3n2)cc1 0.316 µM
Cc1ccc(/C=N\Nc2nc3ccc(Cl)cc3[nH]2)o1 4.47 µM
O=C(Nc1ncc([N+](=O)[O-])s1)c1cccs1 562 nM and 1 µM
C/C(=N\NC(=O)c1nc(C)cc(C)n1)c1ccccc1 1.78 µM
CCN(CC)c1ccc(/C=C/C(=O)C2C(=O)C=C(C)OC2=O)cc1 (centres undefined) 2.82 µM
CN(C(=O)Nc1cnc2ccccc2c1)c1ccccc1 2.82 µM
COc1cccc(C(=O)NCCC2=CCCCC2)c1 0.631 µM
COC(=O)c1ccccc1NC(=O)c1cccc(COc2ccccc2Cl)c1 0.447 µM

Potency, inconclusive:
CCc1ccc(-c2cn(C3CCCCC3)c(=S)[nH]2)cc1 1.12 µM [activator, partial curve]
CCN(CC)S(=O)(=O)c1cc(C(=O)Nc2ccccc2[N+](=O)[O-])ccc1Cl 3.55 µM [activator, single point]
O=C(NC1CCCCCC1)c1cc2c(=O)n3ccccc3nc2s1 3.55 µM [activator, single point]
Cc1ccc(N2C(=O)[C@@H]3Cc4ccccc4CN3C2=O)cc1 5.62 µM [activator, single point]
CN(C)c1ccc(/C=N/N2CCN(c3ccccn3)CC2)cc1 3.55 µM [activator, partial curve]
COc1ccc(C(=O)c2oc3ccccc3c2N)cc1 3.98 µM [activator, single point]
Cn1c(C(=O)NCCc2c[nH]c3ccccc23)cc2sccc21 3.55 µM [activator, partial curve]
COc1cc(C(=S)N2CCCC2)ccc1OCc1ccccc1 5.62 µM [activator, single point]
COc1ccccc1C(=O)NNC(=O)c1cccc(C)c1 3.98 µM [activator, single point]
Cc1ccc(N=C2NC(=O)/C(=C/c3cccn3C)S2)cc1 1 µM [activator, full curve]
COc1ccccc1-c1ccc(NC2CCCC2)nn1 2.24 µM [activator, partial curve]
N#C/C(=C\Nc1ccc2c(c1)OCCO2)c1nc2ccccc2[nH]1 2.82 µM [activator, partial curve]
N#Cc1ccccc1OCC(=O)Nc1nnc(C2CC2)s1 2.82 µM [activator, partial curve]
Cc1cc(-c2nnc(CSc3nnc(NC(=O)c4ccc(C(C)(C)C)cc4)s3)o2)ccc1[N+](=O)[O-] 2 µM [activator, partial curve]
O=C1OC(c2ccccc2)=C/C1=C/N1CCOCC1 6.31 µM [activator, single point]
O=C(Cn1nnc2ccccc21)c1ccccc1 5.62 µM [activator, single point]
Cc1cc(C)cc(C(=O)Nc2nc3ccccc3[nH]2)c1 2 µM [activator, partial curve]
Cc1ccc(C(=O)NCC(=O)NC23CC4CC(CC(C4)C2)C3)cc1 0.794 µM [activator, partial curve]
O=C(Nc1ccc2c(c1)CCC2)c1ccc(F)c(S(=O)(=O)N2CCOCC2)c1 3.16 µM [activator, single point]
COc1cc(/C=N/NC(=S)Nc2cccc(C(=O)O)c2)ccc1O 2.51 µM [activator, partial curve]
O=C(COC(=O)c1cn(-c2ccccc2)nc1-c1ccc(F)cc1)Nc1ncc(Cl)cc1Cl 2.51 µM [activator, partial curve]
CCOC(=O)c1sc(NC(=O)c2ccco2)nc1C 3.98 µM [activator, partial curve]
C#CCNC(=O)/C=C/c1ccc(OC)cc1 3.98 µM [activator, single point]
CCOc1ccccc1-c1ccc(C(=O)NCc2ccccc2)o1 3.98 µM [activator, single point]
O=C(COc1ccccc1F)Nc1cc(S(=O)(=O)Nc2cccc(Cl)c2)ccc1O 0.794 µM [activator, single point]
Nc1nc(-c2ccc(Oc3ccccc3)cc2)cs1 3.98 µM [activator, partial curve]
Cc1nc2oc3ccc(Cl)cc3c(=O)c2cc1C(=O)O 3.16 µM [activator, single point]
Cc1cccc(CSc2ccc(-c3ccco3)nn2)c1 2.51 µM [activator, partial curve]
COc1cccc(C(=O)NOCc2ccccc2)c1OC 1.41 µM [activator, partial curve]
Cc1cc(=O)[nH]c(SCCOc2ccc(OC(C)C)cc2)n1 3.55 µM [activator, single point]
Cc1c(C(=O)Nc2nnc(C(F)(F)F)s2)oc2ccccc12 1.12 µM [activator, partial curve]
COc1ccc(N2CC(C)Cn3c2nc2c3c(=O)n(CCN3CCOCC3)c(=O)n2C)cc1 (centres undefined) 6.31 µM [activator, single point]
Cn1c(SCc2ccccc2)nnc1-c1c[nH]c2ccccc12 3.55 µM [activator, partial curve]
Nc1ccc(NC(=O)NC2CCCCC2)cc1 3.16 µM [activator, single point]
Cc1ccc(NC(=O)C2Cc3ccccc3C(=O)O2)cc1 (centres undefined) 3.55 µM [activator, partial curve]
CC(=O)c1ccc(NC(=O)C2CCN(S(=O)(=O)c3cccs3)CC2)cc1 3.55 µM [activator, single point]
C=CCn1cccc(C(=O)Nc2ccc(Cl)cc2)c1=O 2.82 µM [activator, partial curve]
COc1ccccc1N1CCN(C(=O)Nc2cccc(C)c2)CC1 3.16 µM [activator, partial curve]

activation, negative = inhibition, inactive:
CCOC(=O)c1c(C)[nH]c(C(=O)COC(=O)c2ccccc2NC(=O)c2ccco2)c1C -0.728%
Brc1ccc(C=Nc2ccc3c(c2)OCCOCCOCCO3)s1 2.17%
COc1ccc(/C=N/NC(=O)c2nc(-c3ccccc3)cc(-c3ccccc3)n2)cc1O -1.56%
Cc1ccc2oc3c(c(=O)c2c1)C(c1cccc(Br)c1)N(Cc1ccco1)C3=O (centres undefined) -1.48%
Cc1ccc(NC(=O)[C@@H]2CCCN2C(=O)[C@@H]2Cc3ccccc3CN2)c(C)c1 3.22%
COc1ccc(NC(=O)c2ccc([N+](=O)[O-])o2)cc1 25.2%
CC(C)[C@H](NC(=O)OCc1ccccc1)C(=O)NC(C=O)Cc1ccccc1 (some centres undefined) 0.237%
N#Cc1ccccc1S(=O)(=O)N1CCN(CC(=O)Nc2ccccc2C(=O)NC2CC2)CC1 1.67%
Cc1ccsc1CNC(=O)c1c(-c2ccccc2)noc1C -1.99%
Cc1c(NC(=O)c2cccc(NC(=O)COc3ccc(C#N)cc3)c2)c(=O)n(-c2ccccc2)n1C -3.61%
COc1ccc([C@H]2CC(=O)C=C(c3cccc(NC(C)=O)c3)C2)cc1 -2.34%
CC(OC(=O)c1ccc(Cl)nc1)C(=O)Nc1ccc2c(c1)OCO2 (centres undefined) 4.66%
O=C(Nc1nc2ccc(SC(F)F)cc2s1)c1ccc(NS(=O)(=O)c2ccc(F)c(F)c2)cc1 24.7%
O=[N+]([O-])c1ccc(-c2csc(Nc3ccccc3)[n+]2Cc2ccccc2)cc1 -2.38%
COc1ccccc1NC(=O)COc1ccc(-c2nn(C)c(=O)c3ccccc23)cc1 3.67%
COc1ccc(N=Cc2c(O)c3ccccc3oc2=O)cc1 4.08%
CCc1c(C)nc2[nH]nc(-c3ccccc3)n2c1=O 8.7%
O=C(NCc1ccc(OC(F)(F)F)cc1)C1CC(c2cccc(F)c2)=NO1 (centres undefined) 0.808%
CN1C(=O)/C(=C/c2ccc3c(c2)OCO3)N=C1c1ccccc1 -1.98%
CCCCNC(=O)/C(C#N)=C/c1ccc2c(c1)OCCO2 0.787%
CCC(Oc1ccccc1)C(=O)Nc1ccc(S(=O)(=O)Nc2cc(C)on2)cc1 (centres undefined) -4.69%
Cc1noc(C)c1-c1nc(CS(=O)(=O)c2ccc(F)cc2)no1 0.66%
CCCOc1ccc(C(=O)NCC(c2ccco2)N(C)C)cc1 (centres undefined) -3.55%
CCOC(=O)c1csc(NC(=O)c2cc(OC)c(OC)c(OC)c2)n1 -4.44%
Cc1ccc(NC(=O)c2nnn(-c3cccc(C(F)(F)F)c3)c2N)cc1 -2.02%
CCC(O)c1cc2c(cc1NC(=O)c1ccc(C)cc1)OCCO2 (centres undefined) 1.74%
CCOc1ccc(/C=N/NC(=O)NC23CC4CC(CC(C4)C2)C3)cc1O -1.51%
Cc1ccc(-n2cc(CNCCc3ncc(C)[nH]3)c(-c3ccc(F)cc3)n2)cc1 -2.35%
Cc1nc(S(=O)(=O)Cc2ccccc2Cl)nc2c1CCC2 17.2%
